Molecules are shown by their SMILES. Among all 150,000 compounds or so, about 540 (0.36%) showed an effect of 50% or more. This is one part of the list.

The subject of the assay is Plasmodium falciparum. Kind of assay: Primary screen in NF54 nanoGlo assay, in single point, at 2uM, 72h; a lower Z score goes with more inhibition. The format is functional, Erythrocyte. The following applies: timepoint 72 hour.
What is called % Inhibition is the relative decrease from the control value, in per cent. For `O=C(c1ccc(OC2CCC2)cc1Cl)N1CCCO1`, the “% Inhibition” value is reported as -6% and the Z score came to 0.57.

With `NC(=O)c1cc(C(F)(F)F)cc(Cl)c1F`, the “% Inhibition” value came out at 0% and the Z score is listed as -0.03.

With `CCOC1CC(NC(=O)N(C)Cc2nc(C)cs2)C12CCC2` (stereo unspecified), the “% Inhibition” value was -18% and the Z score is recorded as 1.51.

As to `O=C(Cc1cccnc1)N1CC[C@@](O)(c2ccccc2)[C@H]2CCCC[C@@H]21`, the “% Inhibition” value is -15% and the Z score amounted to 2.42.

With `Cc1ccc(S(=O)(=O)N2C[C@@H](C(=O)Nc3cccc(F)c3)Oc3cc(C)ccc32)cc1`, the “% Inhibition” value is reported as -9% and the Z score was 1.13.

As to `Cc1nn(CC(=O)O)c2nccc(-c3cccs3)c12`, the “% Inhibition” value came to 1% and the Z score is -0.14.

Consider `COC(=O)C(NCc1cccc(F)c1F)C(C)O` (stereo unspecified), for which the “% Inhibition” value is given as 2% and the Z score is on record as -0.29.

Take `Cc1cccc(CN2C(=O)C3(CCOCC3)C[C@H]2c2nnnn2C(C)(C)C)c1`: the “% Inhibition” value is on record as -10% and the Z score came to 1.75.

With `CCCc1cc(C(=O)Nc2ccc(NC)nc2)no1`, the “% Inhibition” value is given as -2% and the Z score was determined as 0.19.

With `O=C(Nc1ccc(OCc2cccnc2)cc1)NC1CCC(O)CC1` (stereo unspecified), the “% Inhibition” value was -12% and the Z score was 1.8.

Turning to `COc1ccc(-c2cc(C(=O)N3CCC[C@H](c4nc(C5CCOCC5)no4)C3)c(C)n2C)cc1`, the “% Inhibition” value is given as -4% and the Z score is on record as 0.57.

As for `Cc1cc(-c2ccc(S(=O)(=O)N3CCc4ccccc43)o2)[nH]n1`, the “% Inhibition” value was -2% and the Z score turned out to be 0.24.

As to `Cc1cc(NC(=O)Cn2ccc(-c3nccnc3C)n2)n(C2CCCCC2)n1`, the “% Inhibition” value was -3% and the Z score is reported as 0.43.

In the case of `CC(c1nc(C2CC2)no1)N1CCOC(c2ccccc2)C1` (stereo unspecified), the “% Inhibition” value turned out to be 4% and the Z score is given as -0.66.

As to `O=C(Nc1ccc2ncccc2c1)N1CCN(Cc2ccco2)[C@@H](CCO)C1`, the “% Inhibition” value came to 10% and the Z score is -1.32.

In the case of `Cn1cc(S(=O)(=O)N2CCCCC2)cc1C(=O)NCc1ccc2c(c1)OCO2`, the “% Inhibition” value is reported as 3% and the Z score is reported as -0.41.

On to `COc1nsc(OC)c1CNC(=O)C1(C)CC2CCC1C2` (stereo unspecified), for which the “% Inhibition” value is reported as -8% and the Z score was determined as 1.74.

On to `CCC(CC)n1nc(C)cc1C(=O)N(C)c1ccn(C)n1`, for which the “% Inhibition” value amounted to 2% and the Z score is -0.21.

Consider `CCOC(C)c1nc(C)c(C(=O)NC(CC)c2ccccc2O)s1` (stereo unspecified), for which the “% Inhibition” value is -4% and the Z score is 0.55.

For `CCC(NC(=O)Cn1cc(C)cn1)[C@H]1C[C@H](O)C1` (stereo partly specified), the “% Inhibition” value was -15% and the Z score worked out at 1.43.

For `CCS(=O)(=O)N1CC(=O)N(c2cccc(C)c2C)[C@](C)(C(=O)NC2CCCCCCC2)C1`, the “% Inhibition” value is recorded as -17% and the Z score is given as 2.17.

For `CC(=O)N[C@H]1C[C@@H](c2cc(F)cc(F)c2)O[C@@H](c2ccc(O)c(Cl)c2)C1`, the “% Inhibition” value is listed as 2% and the Z score is reported as -0.27.

For the compound `Cc1ccoc1C(=O)NC[C@H]1CN(C)C(=O)CO1`, the “% Inhibition” value is listed as -7% and the Z score was 0.84.

Regarding `O=C(Nc1ccc(F)cc1F)c1cccn2c(-c3ccc(F)cc3)nnc12`, the “% Inhibition” value is on record as -7% and the Z score was 1.08.

As for `C[C@H](NC(=O)c1c(F)ccc(C(F)(F)F)c1Br)c1csnn1`, the “% Inhibition” value is on record as -4% and the Z score came to 0.8.

With `O=C(Nc1ccccc1OCC1CC1)c1cn[nH]c1`, the “% Inhibition” value is recorded as -5% and the Z score worked out at 0.68.

Turning to `O=C(CN1CCN(Cc2nc3c(s2)CCCC3)CC1)Nc1ccccc1F`, the “% Inhibition” value is -3% and the Z score was 0.4.

For `Cc1cc(Br)ccc1C(=O)NC[C@H](C)O`, the “% Inhibition” value was -7% and the Z score worked out at 0.78.

On to `COc1cccc(Cn2c(=O)c(C(=O)Nc3ccc(F)cc3)nn(-c3cccc(OC)c3)c2=O)c1`, for which the “% Inhibition” value is listed as -9% and the Z score is 0.89.

For `COc1ccc(F)cc1C(NC(=O)CCCn1cnnn1)[C@H]1C[C@H](O)C1` (stereo partly specified), the “% Inhibition” value is recorded as -12% and the Z score turned out to be 1.45.

Regarding `COc1cc2c(cc1OC)CN1C(=O)N(CCC(=O)Nc3cccc(Cl)c3)C(=O)[C@@H]1C2`, the “% Inhibition” value was -1% and the Z score was 0.09.

`Clc1ccccc1COc1ccccc1-c1nc2c([nH]1)CCNC2`: the “% Inhibition” value is listed as -5% and the Z score was 0.93.

For `CC1(C)CCN(CCNC(=O)Cc2ccc(-n3ccnc3)cc2)C1`, the “% Inhibition” value is -2% and the Z score turned out to be 0.21.

Turning to `Cc1c(Cl)cccc1S(=O)(=O)N1CCC[C@H](c2ccn(C)n2)C1`, the “% Inhibition” value is given as -7% and the Z score came out at 0.77.

Take `Nc1cc(-c2cccc(C(=O)NCCCN3CCCC3=O)c2)nc(N)n1`: the “% Inhibition” value was -11% and the Z score is on record as 1.35.

For the compound `CCN(CC)c1ncnc2c(-c3ccccc3)cn(CC(=O)N3CCCCC3)c12`, the “% Inhibition” value turned out to be 15% and the Z score is reported as -2.25.

For `O=C(c1ccccc1)[C@H]1CCCN(C(=O)CCn2nnc3ccccc32)C1`, the “% Inhibition” value was 0% and the Z score is on record as -0.02.

Regarding `CCC(CC)[C@H]1CCN(S(=O)(=O)CC2CCOCC2)C1`, the “% Inhibition” value turned out to be 10% and the Z score is given as -1.12.

As to `COc1c(C)cnc(Cn2cc(C#N)cn2)c1C`, the “% Inhibition” value is on record as -1% and the Z score was 0.15.

As to `CCc1nc(C)c(C(=O)NCc2cnc3c(c2)CCC3)o1`, the “% Inhibition” value is listed as -8% and the Z score is 1.

On to `CNC(=O)c1ccc(CN2CCC[C@@](CO)(CC3CC3)C2)o1`, for which the “% Inhibition” value was -21% and the Z score came out at 2.07.

As to `CCOc1cncc(NCCn2ccnc2)n1`, the “% Inhibition” value stood at 25% and the Z score was -2.8.

For the compound `CCCCCNC(=O)Nc1nnc(C)s1`, the “% Inhibition” value was 0% and the Z score was determined as 0.09.

Source of the values: ChEMBL document CHEMBL4888484, “Replenishing the malaria drug discovery pipeline: Screening and hit evaluation of the MMV Hit Generation Library 1 (HGL1) against asexual blood stage Plasmodium falciparum ,using a nano luciferase reporter read-out” (2022).
